Experimental data published in PMC10384177.
Results are given in words; binding and its absence hold for the method and conditions named. Some entries that bind do so weakly or less than the wild type. Tags and fused reporters may be left off the sequences shown.

T1: PIA1 (clade F PP2C protein phosphatase), BD-PIA1 two-hybrid fusion (Arabidopsis thaliana) (UniProt Q9SIU8)
T1 sequence: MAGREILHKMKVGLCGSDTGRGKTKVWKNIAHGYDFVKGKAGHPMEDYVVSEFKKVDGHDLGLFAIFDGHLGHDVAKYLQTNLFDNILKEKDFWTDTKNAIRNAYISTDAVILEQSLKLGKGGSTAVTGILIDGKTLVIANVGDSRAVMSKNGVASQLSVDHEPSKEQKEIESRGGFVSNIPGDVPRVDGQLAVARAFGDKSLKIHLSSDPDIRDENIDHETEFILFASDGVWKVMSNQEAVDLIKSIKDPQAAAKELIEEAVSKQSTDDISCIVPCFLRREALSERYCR


Each binder was assayed against T1, PIA1 (clade F PP2C protein phosphatase), BD-PIA1 two-hybrid fusion (Arabidopsis thaliana) (assay: two-hybrid; yeast AH109, BD-PIA1 as bait; in the presence of ABA; growth on selection media; 28 °C).

Row | binding | Binder
1 | binds | RCAR1, two-hybrid fusion (receptor, UniProt Q84MC7 1-187) MMDGVEGGTAMYGGLETVQYVRTHHQHLCRENQCTSALVKHIKAPLHLVWSLVRRFDQPQKYKPFVSRCTVIGDPEIGSLREVNVKSGLPATTSTERLELLDDEEHILGIKIIGGDHRLKNYSSILTVHPEIIEGRAGTMVIESFVVDVPQGNTKDETCYFVEALIRCNLKSLADVSERLASQDITQ
2 | binds | SnRK2.9, two-hybrid fusion (enzyme, UniProt O64812 1-339) MEKYEMVKDLGFGNFGLARLMRNKQTNELVAVKFIDRGYKIDENVAREIINHRALNHPNIVRFKEVVLTPTHLGIVMEYAAGGELFERISSVGRFSEAEARYFFQQLICGVHYLHALQICHRDLKLENTLLDGSPAPRLKICDFGYSKSSVLHSNPKSTVGTPAYIAPEVFCRSEYDGKSVDVWSCGVALYVMLVGAYPFEDPKDPRNFRKTVQKIMAVNYKIPGYVHISEDCRKLLSRIFVANPLHRSTLKEIKSHAWFLKNLPRELKEPAQAIYYQRNVNLINFSPQRVEEIMKIVGEARTIPNLSRPVESLGSDKKDDDEEEYLDANDEEWYDDYA

What follows are binders tested against T1, PIA1 (clade F PP2C protein phosphatase), BD-PIA1 two-hybrid fusion (Arabidopsis thaliana) (assay: two-hybrid; yeast AH109, BD-PIA1 as bait; no exogenous ABA; growth on selection media after SD/-Trp/-Leu, SD/-Trp/-Leu/-His with 3-AT, X-alpha-Gal staining; 28 °C).

Row | Binder | binding
3 | RCAR9, two-hybrid fusion (receptor, UniProt Q8S8E3 1-215) MPTSIQFQRSSTAAEAANATVRNYPHHHQKQVQKVSLTRGMADVPEHVELSHTHVVGPSQCFSVVVQDVEAPVSTVWSILSRFEHPQAYKHFVKSCHVVIGDGREVGSVREVRVVSGLPAAFSLERLEIMDDDRHVISFSVVGGDHRLMNYKSVTTVHESEEDSDGKKRTRVVESYVVDVPAGNDKEETCSFADTIVRCNLQSLAKLAENTSKFS | no binding
4 | RCAR8, two-hybrid fusion (receptor, UniProt Q9FLB1 1-203) MRSPVQLQHGSDATNGFHTLQPHDQTDGPIKRVCLTRGMHVPEHVAMHHTHDVGPDQCCSSVVQMIHAPPESVWALVRRFDNPKVYKNFIRQCRIVQGDGLHVGDLREVMVVSGLPAVSSTERLEILDEERHVISFSVVGGDHRLKNYRSVTTLHASDDEGTVVVESYIVDVPPGNTEEETLSFVDTIVRCNLQSLARSTNRQ | no binding
5 | RCAR6, two-hybrid fusion (receptor, UniProt Q9FJ49 1-159) MKTSQEQHVCGSTVVQTINAPLPLVWSILRRFDNPKTFKHFVKTCKLRSGDGGEGSVREVTVVSDLPASFSLERLDELDDESHVMVISIIGGDHRLVNYQSKTTVFVAAEEEKTVVVESYVVDVPEGNTEEETTLFADTIVGCNLRSLAKLSEKMMELT | no binding
6 | RCAR5, two-hybrid fusion (receptor, UniProt Q9FJ50 1-161) METSQKYHTCGSTLVQTIDAPLSLVWSILRRFDNPQAYKQFVKTCNLSSGDGGEGSVREVTVVSGLPAEFSRERLDELDDESHVMMISIIGGDHRLVNYRSKTMAFVAADTEEKTVVVESYVVDVPEGNSEEETTSFADTIVGFNLKSLAKLSERVAHLKL | no binding
7 | RCAR1, two-hybrid fusion (receptor, UniProt Q84MC7 1-187) MMDGVEGGTAMYGGLETVQYVRTHHQHLCRENQCTSALVKHIKAPLHLVWSLVRRFDQPQKYKPFVSRCTVIGDPEIGSLREVNVKSGLPATTSTERLELLDDEEHILGIKIIGGDHRLKNYSSILTVHPEIIEGRAGTMVIESFVVDVPQGNTKDETCYFVEALIRCNLKSLADVSERLASQDITQ | binds
8 | RCAR14, two-hybrid fusion (receptor, UniProt O80992 1-190) MSSSPAVKGLTDEEQKTLEPVIKTYHQFEPDPTTCTSLITQRIHAPASVVWPLIRRFDNPERYKHFVKRCRLISGDGDVGSVREVTVISGLPASTSTERLEFVDDDHRVLSFRVVGGEHRLKNYKSVTSVNEFLNQDSGKVYTVVLESYTVDIPEGNTEEDTKMFVDTVVKLNLQKLGVAATSAPMHDDE | no binding
9 | RCAR3, two-hybrid fusion (receptor, UniProt Q9FGM1 1-188) MEANGIENLTNPNQEREFIRRHHKHELVDNQCSSTLVKHINAPVHIVWSLVRRFDQPQKYKPFISRCVVKGNMEIGTVREVDVKSGLPATRSTERLELLDDNEHILSIRIVGGDHRLKNYSSIISLHPETIEGRIGTLVIESFVVDVPEGNTKDETCYFVEALIKCNLKSLADISERLAVQDTTESRV | no binding
10 | RCAR13, two-hybrid fusion (receptor, UniProt Q9SSM7 1-209) MNLAPIHDPSSSSTTTTSSSTPYGLTKDEFSTLDSIIRTHHTFPRSPNTCTSLIAHRVDAPAHAIWRFVRDFANPNKYKHFIKSCTIRVNGNGIKEIKVGTIREVSVVSGLPASTSVEILEVLDEEKRILSFRVLGGEHRLNNYRSVTSVNEFVVLEKDKKKRVYSVVLESYIVDIPQGNTEEDTRMFVDTVVKSNLQNLAVISTASPT | no binding
11 | RCAR10, two-hybrid fusion (receptor, UniProt O80920 1-207) MLAVHRPSSAVSDGDSVQIPMMIASFQKRFPSLSRDSTAARFHTHEVGPNQCCSAVIQEISAPISTVWSVVRRFDNPQAYKHFLKSCSVIGGDGDNVGSLRQVHVVSGLPAASSTERLDILDDERHVISFSVVGGDHRLSNYRSVTTLHPSPISGTVVVESYVVDVPPGNTKEETCDFVDVIVRCNLQSLAKIAENTAAESKKKMSL | no binding

More lines, now with the values ahead:

Row | binding | Binder
12 | no binding | SnRK2.7, two-hybrid fusion (enzyme, UniProt Q9SMQ4 1-350) MERYDILRDLGSGNFGVAKLVREKANGEFYAVKYIERGLKIDEHVQREIINHRDLKHPNIIRFKEVFVTPTHLAIVMEYAAGGELFERICNAGRFSEDEGRYYFKQLISGVSYCHAMQICHRDLKLENTLLDGSPSSHLKICDFGYSKSSVLHSQPKSTVGTPAYVAPEVLSRKEYNGKIADVWSCGVTLYVMLVGAYPFEDPEDPRNIRNTIQRILSVHYTIPDYVRISSECKHLLSRIFVADPDKRITVPEIEKHPWFLKGPLVVPPEEEKCDNGVEEEEEEEEKCRQSVEEIVKIIEEARKGVNGTDNNGGLGLIDGSIDLDDIDDADIYDDVDDDEERNGDFVCAL
13 | no binding | SnRK2.10, two-hybrid fusion (enzyme, UniProt Q9C958 1-361) MDKYELVKDIGAGNFGVARLMRVKNSKELVAMKYIERGPKIDENVAREIINHRSLRHPNIIRFKEVVLTPTHIAIAMEYAAGGELFERICSAGRFSEDEARYFFQQLISGVSYCHAMQICHRDLKLENTLLDGSPAPRLKICDFGYSKSSLLHSMPKSTVGTPAYIAPEVLSRGEYDGKMADVWSCGVTLYVMLVGAYPFEDQEDPKNFKKTIQRIMAVKYKIPDYVHISQDCKHLLSRIFVTNSNKRITIGDIKKHPWFLKNLPRELTEIAQAAYFRKENPTFSLQSVEEIMKIVEEAKTPARVSRSIGAFGWGGGEDAEGKEEDAEEEVEEVEEEEDEEDEYDKTVKQVHASMGEVRVS
14 | no binding | SnRK2.2, two-hybrid fusion (enzyme, UniProt Q39192 1-362) MDPATNSPIMPIDLPIMHDSDRYDFVKDIGSGNFGVARLMTDRVTKELVAVKYIERGEKIDENVQREIINHRSLRHPNIVRFKEVILTPSHLAIVMEYAAGGELYERICNAGRFSEDEARFFFQQLISGVSYCHAMQICHRDLKLENTLLDGSPAPRLKICDFGYSKSSVLHSQPKSTVGTPAYIAPEILLRQEYDGKLADVWSCGVTLYVMLVGAYPFEDPQEPRDYRKTIQRILSVTYSIPEDLHLSPECRHLISRIFVADPATRITIPEITSDKWFLKNLPGDLMDENRMGSQFQEPEQPMQSLDTIMQIISEATIPTVRNRCLDDFMADNLDLDDDMDDFDSESEIDVDSSGEIVYAL
15 | binds | SnRK2.9, two-hybrid fusion (enzyme, UniProt O64812 1-339) MEKYEMVKDLGFGNFGLARLMRNKQTNELVAVKFIDRGYKIDENVAREIINHRALNHPNIVRFKEVVLTPTHLGIVMEYAAGGELFERISSVGRFSEAEARYFFQQLICGVHYLHALQICHRDLKLENTLLDGSPAPRLKICDFGYSKSSVLHSNPKSTVGTPAYIAPEVFCRSEYDGKSVDVWSCGVALYVMLVGAYPFEDPKDPRNFRKTVQKIMAVNYKIPGYVHISEDCRKLLSRIFVANPLHRSTLKEIKSHAWFLKNLPRELKEPAQAIYYQRNVNLINFSPQRVEEIMKIVGEARTIPNLSRPVESLGSDKKDDDEEEYLDANDEEWYDDYA
16 | no binding | SnRK2.3, two-hybrid fusion (enzyme, UniProt Q39193 1-361) MDRAPVTTGPLDMPIMHDSDRYDFVKDIGSGNFGVARLMRDKLTKELVAVKYIERGDKIDENVQREIINHRSLRHPNIVRFKEVILTPTHLAIIMEYASGGELYERICNAGRFSEDEARFFFQQLLSGVSYCHSMQICHRDLKLENTLLDGSPAPRLKICDFGYSKSSVLHSQPKSTVGTPAYIAPEVLLRQEYDGKIADVWSCGVTLYVMLVGAYPFEDPEEPRDYRKTIQRILSVKYSIPDDIRISPECCHLISRIFVADPATRISIPEIKTHSWFLKNLPADLMNESNTGSQFQEPEQPMQSLDTIMQIISEATIPAVRNRCLDDFMTDNLDLDDDMDDFDSESEIDIDSSGEIVYAL
